Reference: the supplement of paper PMC11181314
Some of the results follow. Single values of this set are uncertain.

Test system: U2OS
Assay: Cell Painting induction (percent of morphological features significantly changed vs DMSO); higher = stronger morphological change
Conditions: 10 µM, 20 h
Method: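 Cell Painting assay in U2OS cells: compounds at 10 µM for 20 h, six dyes, 579 robust CellProfiler features as Z-scores vs DMSO median (MAD). Induction is the % of significantly changed features (active if ≥5%); relative cell count is in % of DMSO. The primary run holds DCM compounds preselected for induction ≥10%; the confirmation repeat defines active compounds (370 of 549). Replicate agreement is low, attributed to precipitation.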

[1] = run: primary screen (compounds selected for induction >=10%)
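Also: stains mark DNA, RNA and nucleoli, ER, actin, Golgi, plasma membrane and mitochondria, read by high-content imaging, with DMSO controls at matching solvent concentration.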

Compound | Cell Painting induction (run: confirmation repeat) | Cell Painting induction [1]
Cc1nn(C(C)C(=O)NCCCN2CCCCC2C)c(=O)c2c1sc1ccccc12 (stereo not given) | active: 10.4% | 18.5%
CCC1CCCCN1CCCNC(=O)CN1C(=O)CSc2ccc(S(=O)(=O)N3CCC(C)CC3)cc21 (stereo not given) | active: 23.1% | 44%
COCCNC(=O)C1CCN(C(=O)c2cc3sccc3n2Cc2ccc(F)cc2)CC1 | active: 13.3% | 10.7%
CCOc1ccc(NC(=O)CSc2nc3cc(C(=O)NCC4CCCO4)ccc3c(=O)n2CC2CCCO2)cc1 (stereo not given) | inactive: 2.4% | 10.4%
CCOc1cc(C2/C(=C(\O)OCCOC)C(C)=Nc3nc4ccccc4n32)ccc1O (stereo not given) | inactive: 1.7% | 10.4%
CC1CCC(NC(=O)C2CCC(CNS(=O)(=O)c3ccc4c(c3)C(C)(C)C(=O)N4C)CC2)CC1 (stereo not given) | active: 48.7% | 35.4%
COC(=O)C1=C(C)NC(=O)/C1=C\c1cc(C)n(-c2ccccc2C)c1C | active: 13.8% | 34.9%
Cc1ccc(Oc2cc(C#N)c(C#N)cc2-n2nnc3ccccc32)cc1C | inactive: 0.3% | 23.5%
Cc1ccc(S(=O)(=O)c2nc(-c3ccccc3Br)oc2N(C)C)cc1 | active: 29% | 19.5%
Cc1ccc(-c2nc(C3CCCN(S(=O)(=O)c4ccc(C(C)(C)C)cc4)C3)no2)cc1 (stereo not given) | inactive: 0.3% | 58.4%
Cc1cc2oc3c(c(=O)c2cc1C)C(c1ccc(C(C)C)cc1)N(CCCN1CCOCC1)C3=O (stereo not given) | active: 8.5% | 52.3%
COc1ccc(-n2nc(C(=O)NCCCN3CCCC3=O)c3c4ccccc4n(C)c3c2=O)cc1Cl | inactive: 0.2% | 11.6%
CC(=O)c1ccc(N2CCN(C(=O)Nc3ccc(F)cc3)CC2)cc1 | active: 5.4% | 10.4%
CCO/C(O)=C1\C(C)=Nc2nc3ccccc3n2C1c1ccc(N(C)C)cc1 (stereo not given) | inactive: 1% | 50.1%
COCCn1c(=O)[nH]c2cc(C(=O)N3CCN(c4ccc(Cl)cc4)CC3)ccc2c1=O | active: 24% | 21.2%
Cc1ccc(N2CC(C(=O)N3CCC(C(=O)Nc4cccc(Br)c4)CC3)CC2=O)cc1 (stereo not given) | active: 13% | 11.4%
CCCN(CCC)CCCNC(=O)C1c2cc(OC)c(OC)cc2C(=O)N(C)C1c1cccs1 (stereo not given) | active: 16.8% | 14.3%
O=C(CNC(=S)N(CCCN1CCOCC1)Cc1cccs1)NC1CCCCC1 | active: 9% | 10.2%
CCOC(Cn1c(SCC(=O)Nc2cc(C)on2)nc2ccccc2c1=O)OCC | inactive: 0.3% | 10.9%
COc1ccc(OC)c(CN2CCN(Cc3cc(OC)c(OC)c(OC)c3)CC2)c1 | inactive: 0.5% | 10.2%
Cc1ccc(-c2cc(C(F)F)n3ncc(C(=O)N4CCN(c5ccc(F)cc5)CC4)c3n2)cc1 | active: 16.4% | 35.2%
COc1ccc(CN2CCN(C(=O)c3ccc(CNS(=O)(=O)c4ccc(C)cc4)cc3)CC2)c(OC)c1OC | active: 40.9% | 35.8%
Cc1ccc(NC(=O)CN(C2=NC3CS(=O)(=O)CC3S2)c2ccccc2)cc1 (stereo not given) | active: 27.3% | 27.3%
CCCCNS(=O)(=O)c1ccc2nc(-c3cccnc3)cc(C(=O)NCCCN(CC)CC)c2c1 | active: 19.7% | 21.2%
COc1cc(C2CC(=O)N(CC(=O)NCC3CCCO3)c3ccccc3S2)cc(OC)c1OC (stereo not given) | inactive: 2.4% | 11.6%

Compound | Cell Painting induction (run: confirmation repeat) | Cell Painting induction [1]
COc1ccc(OCC(=O)Nc2c(C(=O)N3CCC(N4CCCCC4)CC3)oc3ccccc23)cc1 | active: 48.7% | 38%
COc1ccc(N(CC(=O)Nc2ccc(C(C)C)cc2)S(=O)(=O)c2c(C)noc2C)cc1 | active: 27.1% | 24%
O=C1CC(NCCN2CCOCC2)C(=O)N1Cc1ccc(N2CCCC2=O)cc1 (stereo not given) | active: 17.1% | 19.5%
COc1ccc(/C=C2\SC(=S)N(CCC(=O)Nc3cccc(O)c3)C2=O)cc1OC | active: 34.7% | 47.2%
O=C(N/N=C/c1cccnc1)c1ccccc1OCc1cccc(Br)c1 | active: 19% | 15.7%
CCC1CCCCN1CCCNC(=O)Cn1ncc2c3cc(C)ccc3nc-2c1O (stereo not given) | inactive: 2.2% | 12.4%
CCCCCCNC(=O)c1ccc(CNS(=O)(=O)c2ccc(OC)cc2)cc1 | active: 25.6% | 15.2%
CCOc1ccc(NC(=S)N(CCc2c(C)[nH]c3ccccc23)Cc2ccco2)cc1 | active: 10.7% | 20.4%
O=S(=O)(c1ccc2nc(N3CCN(c4ccccc4F)CC3)ccc2c1)N1CCCCC1 | inactive: 0.2% | 16.4%
CCN1CCN(CCCNC(=O)c2ccc3c(=O)n(CCc4ccccc4)c(=O)[nH]c3c2)CC1 | active: 19.2% | 15.7%
CCN1CCN(c2cc(C)c3cc(NC(=O)CCC(=O)Nc4ccc(OC)c(OC)c4)ccc3n2)CC1 | active: 27.5% | 58.9%
CCCCN(C)CCn1c(=S)[nH]c2cc(OCC)c(OCC)cc2c1=O | active: 15% | 26.1%
CCCC(=O)Nc1cc(-c2nn(C)c(=O)c3ccccc23)ccc1N1CCCCC1 | active: 12.3% | 11.9%
CN1CCN(CCCNC(=O)c2ccc(Cn3c(=S)[nH]c4ccc(Br)cc4c3=O)cc2)CC1 | active: 28.5% | 33.2%
CCN(CC)CCn1c(NCc2cc(OC)ccc2OC)nc2ccccc21 | inactive: 4.8% | 15.7%
COc1ccc(C2=C(Nc3ccccc3)c3ccccc3C2=O)cc1 | active: 13.1% | 11.1%
Cc1ccc2nc(N(CCCN(C)C)C(=O)c3ccc(S(=O)(=O)N(C)C)cc3)sc2c1 | active: 13.3% | 17.1%
CCCCCn1c(=O)[nH]c2cc(C(=O)NCCN3CCCCC3C)ccc2c1=O (stereo not given) | active: 25.6% | 48%
O=C(NCCCN1CCCC1)c1ccc2c(c1)N(Cc1ccccc1F)C(=O)c1ccccc1S2(=O)=O | active: 16.9% | 39.6%
CCn1cc(CN(C)C(=O)CSc2nc(-c3ccco3)cc(C(F)(F)F)n2)c(C)n1 | active: 13.1% | 16.4%
Cc1[nH]c2ccccc2c1CCN(Cc1cccnc1)C(=S)NC(C)(C)C | inactive: 1.7% | 20.2%
COc1ccc(OC)c(CCNC(=O)CN2C(=O)COc3ccc(S(=O)(=O)N4CCOCC4)cc32)c1 | inactive: 2.4% | 12.1%
Cc1cccc(CN2C(=O)c3ccccc3Sc3ccc(C(=O)NCCCN4CCOCC4)cc32)c1 | inactive: 3.5% | 18.8%
CCc1ccc(-n2c(CSc3nnnn3-c3ccccc3)nc3ccccc3c2=O)cc1 | active: 5.2% | 24.2%
COc1cc(-c2nc(S(=O)(=O)c3ccc(Cl)cc3)c(N(C)C)o2)cc(OC)c1OC | inactive: 1% | 19.2%

Compound | Cell Painting induction (run: confirmation repeat) | Cell Painting induction [1]
CC(C)Cn1cc(C(=O)NCCCOC(C)C)c2c3ccccc3n(C)c2c1=O | inactive: 0.2% | 18.3%
CCOC(=O)c1c(C)n(C)c2ccc(OCC(O)CNC(CC)CO)cc12 (stereo not given) | active: 5.9% | 15.5%
CCn1cc(C(=O)NCCN(CC(C)C)CC(C)C)c(=O)c2cc(S(=O)(=O)N3CCOCC3)ccc21 | inactive: 1.4% | 20%
COc1cc(NC(=S)NC2CC(C)(C)NC(C)(C)C2)c(OC)cc1Cl | active: 36.3% | 38.3%
CCOc1cc2[nH]c(=S)n(CCN3CCCCC3CC)c(=O)c2cc1OCC (stereo not given) | active: 35.9% | 42%
Cc1ccc(C)c(CN2CCC(CNC(=O)CCc3nnc4ccc(N5CCC(C)CC5)nn34)CC2)c1 | active: 37.3% | 47.3%
CCCN1CCN(CCCNC(=O)CN2C(=O)COc3ccc(C(C)(C)C)cc32)CC1 | inactive: 3.8% | 13.1%
CCCC(=O)c1ccc(N2CCN(S(=O)(=O)c3ccc(C)cc3)CC2)c(F)c1 | inactive: 0.9% | 19%
COc1ccc(Br)cc1C(=O)Nc1ccc(NC(=O)c2ccco2)cc1 | active: 33% | 48%
Cc1ccccc1CN1CCC(CNC(=O)Nc2ccc(F)cc2F)CC1 | active: 17.3% | 24.5%
CC(NC(=O)c1ccc2c(c1)OCO2)C(c1cccs1)N1CCN(c2ccccc2)CC1 (stereo not given) | active: 6% | 23.5%
COc1cc(Nc2nc3c(S(=O)(=O)c4ccc(C)cc4)nnn3c3ccccc23)cc(OC)c1OC | active: 19.2% | 30.9%
COc1ccc(-c2cc(C(F)(F)F)nc(SCC(=O)Nc3cc(C)on3)n2)cc1 | active: 42% | 46.3%
CCNC(=S)N(CCc1c(C)[nH]c2ccc(C)cc12)Cc1cccnc1 | active: 18% | 12.8%
CCOC(=O)C1C(c2ccccc2)C(=C(\O)OCC)/C(=N/c2ccc(Br)cc2)CC1(C)O (stereo not given) | inactive: 2.8% | 11.9%
COc1cccc(-c2cc(C(F)(F)F)n3ncc(C(=O)N4CCc5ccccc5C4)c3n2)c1 | active: 6.6% | 19.2%
CN1CCN(C(=O)/C(=C/c2cn(S(=O)(=O)N(C)C)c3ccccc23)NC(=O)c2ccccc2F)CC1 | active: 14.7% | 11.2%
COc1ccccc1CNC(=O)c1oc2ccc(S(=O)(=O)N3CCOCC3)cc2c1C | active: 26.9% | 14.9%
Cc1ccc2[nH]c(O)c(/N=N/C(=O)C3CC3c3ccccc3)c2c1Br (stereo not given) | active: 9.8% | 33%
Cc1cccc(NC(=O)c2cc(S(=O)(=O)N3CCc4ccccc43)cn2C)c1 | active: 12.6% | 10.7%
O=C(NCCc1ccc(Cl)cc1)c1cc(S(=O)(=O)N2CCCCC2)c[nH]1 | inactive: 4% | 12.4%
COc1ccc(-n2ncc(C(=O)Nc3cc(Cl)ccc3C)c2C2CCNCC2)cc1 | active: 27.3% | 33.2%
CCN(Cc1ccccc1)S(=O)(=O)c1ccc(S(=O)(=O)N2CCN(CCC#N)CC2)cc1 | inactive: 0% | 15.7%
COc1ccc(-c2cc(C(F)F)n3ncc(C(=O)N4CCN(c5cccc(Cl)c5)CC4)c3n2)cc1 | active: 33.3% | 24.5%
COC(=O)c1c(NC(=O)C2c3ccccc3Oc3ccccc32)sc(C)c1C | active: 10.7% | 21.2%
